From the supplement of paper PMC11417369
± gives the standard deviation of the averaged measurements. This is one part of the list.

System: PfAP2-LT AP2 domain (GST-tagged)
Test: gcPBM binding intensity (ln(normalized median fluorescence intensity)); higher = stronger DNA binding
Method in brief: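 GST-tagged P. falciparum DNA-binding domains produced in E. coli were incubated for 1 h on an Agilent 4 × 180k array of primer-extended double-stranded 36-bp intergenic genomic probes with negative controls. Binding intensity is the highest Masliner-normalised natural-log median intensity across replicate spots of either probe orientation, with bound protein detected by Alexa488 anti-GST antibody at 488 nm.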

**Q.** ATTGAATATGGATATGTGCACATATGTATATAAGTA was tested. Which “gcPBM binding intensity (ln)” value did it give?
**A.** 9.21 ± 0.47

**Q.** Which “gcPBM binding intensity (ln)” value does the source give for “ATATATATACTGTGTACACACATATGTATTTATATA [CACACA_site4600]” here?
**A.** 9.23 ± 0.38

**Q.** How did the “gcPBM binding intensity (ln)” value turn out when “AAAACATTGTTGAACTGTTTTATTTATAAATATAAG [XGTACX_negctrl_site393]” was run?
**A.** 8.43 ± 0.45

**Q.** “ATTTCTACTAAAAATACACACGATGATACAACGAAG [CACACA_site1755]” was tested. Which “gcPBM binding intensity (ln)” value did it give?
**A.** 8.87 ± 0.39

**Q.** “TATATATATATATAATGTACATATATATAATATACA [XGTACX_site1552]” was tested. Which “gcPBM binding intensity (ln)” value did it give?
**A.** 8.76 ± 0.22

**Q.** How did the “gcPBM binding intensity (ln)” value turn out when “GTCTTAAAAATTAAAACACACGTTCACTTTCATATT [CACACA_site5803]” was run?
**A.** 8.96 ± 0.55

**Q.** Which “gcPBM binding intensity (ln)” value does the source give for “ATAATGTAAAAGTAAACACACACATATATATATACA [CACACA_site8793]” here?
**A.** 9.58 ± 0.4

**Q.** “AATTAATAACAAAATAAACACACATATATAAATACA [CACACA_site8456]” was tested. Which “gcPBM binding intensity (ln)” value did it give?
**A.** 9.03 ± 0.38

**Q.** “TTTCACTTTTTCCAAAGTACATATATAAAAATTAAT [XGTACX_site6947]” was tested. Which “gcPBM binding intensity (ln)” value did it give?
**A.** 8.21 ± 0.3

**Q.** How did the “gcPBM binding intensity (ln)” value turn out when “TTTTAATAAATATACACACACAAAAAAAAAAAAAAA [CACACA_site3971]” was run?
**A.** 8.93 ± 0.44

**Q.** How did the “gcPBM binding intensity (ln)” value turn out when “AATAAAAAGACATTCACACATATATATTATTTATAT [CACACA_site5936]” was run?
**A.** 8.86 ± 0.39

**Q.** How did the “gcPBM binding intensity (ln)” value turn out when “AATATATAGAAACACACACACAAAAAAAAAAAAAAA [CACACA_site1326]” was run?
**A.** 9.27 ± 0.47

**Q.** “GACCAATTCAAATATGCACACAAATTTGAAAACGAT [CACACA_site9202]” was tested. Which “gcPBM binding intensity (ln)” value did it give?
**A.** 9.31 ± 0.42

**Q.** “AGATTATAAAATTCTACACACATATATACATATATA [CACACA_site3485]” was tested. Which “gcPBM binding intensity (ln)” value did it give?
**A.** 8.91 ± 0.36

**Q.** How did the “gcPBM binding intensity (ln)” value turn out when “ATATAAAAAAAAAAAAGTACACATAAACAAATGCAT [XGTACX_site4241]” was run?
**A.** 8.91 ± 0.49

**Q.** Which “gcPBM binding intensity (ln)” value does the source give for “ATATGTAGAAGTAATGCACACATATGTATATATATA [CACACA_site8796]” here?
**A.** 9.34 ± 0.33

**Q.** With “TTAAAATATAATATTCGTACTTATTCAAAAGAAAAA [XGTACX_site2122]” as the sequence, how does the “gcPBM binding intensity (ln)” value read?
**A.** 8.13 ± 0.51

**Q.** How did the “gcPBM binding intensity (ln)” value turn out when “CATAATACAGATAACACACACAATTATACATAAAAT [CACACA_site5742]” was run?
**A.** 9.59 ± 0.39

**Q.** How did the “gcPBM binding intensity (ln)” value turn out when “TATATTTAGATATATACACACATTAGCATTTTCATA [CACACA_site6902]” was run?
**A.** 8.86 ± 0.4

**Q.** With “CTAATGATCATATATACACACACACTAATAAAAAAA [CACACA_site9329]” as the sequence, how does the “gcPBM binding intensity (ln)” value read?
**A.** 9.64 ± 0.14

**Q.** With “AAAGAATTTGCATATACACACAAAAAGATATATACA [CACACA_site6318]” as the sequence, how does the “gcPBM binding intensity (ln)” value read?
**A.** 9.04 ± 0.44

**Q.** How did the “gcPBM binding intensity (ln)” value turn out when “AACGAAAACACTACGTGTACCAAACGTCCTACTAAC [XGTACX_site4915]” was run?
**A.** 9.02 ± 0.42

**Q.** With “CATACATATACATACAGTACATATTTTTTGTCAATT [XGTACX_site7357]” as the sequence, how does the “gcPBM binding intensity (ln)” value read?
**A.** 8.89 ± 0.42

**Q.** With “GTATATATTTTTATTTAATAATTTGTTTATTTATTC [CACACA_negctrl_site647]” as the sequence, how does the “gcPBM binding intensity (ln)” value read?
**A.** 8.65 ± 0.54

**Q.** For “TTATATGGCTCCATTTGTACGCATCCATGTTTTTAT [XGTACX_site6590]”, which “gcPBM binding intensity (ln)” value is on record?
**A.** 9.2 ± 0.39

**Q.** Which “gcPBM binding intensity (ln)” value does the source give for “GTATGTATATATATATGTACATACTGTTTATCGTTA [XGTACX_site6168]” here?
**A.** 8.9 ± 0.44

**Q.** With “AAAAAAAAAAAAAAAGCACACATCATATTATAATTC [CACACA_site3355]” as the sequence, how does the “gcPBM binding intensity (ln)” value read?
**A.** 8.88 ± 0.42

**Q.** With “AGTTATTAAAAATGTGCATGCAATGGTTTCTCTTAA [TGCATGCA_site634]” as the sequence, how does the “gcPBM binding intensity (ln)” value read?
**A.** 9.04 ± 0.35

**Q.** With “AAAAAAACATAACAAAATGAAACAAAACAAAAAGAA [GTGCAC_negctrl_site577]” as the sequence, how does the “gcPBM binding intensity (ln)” value read?
**A.** 8.99 ± 0.52

**Q.** With “ATTTATAATGATTTTTTTAGTAATCTTGTTATTTTT [XGTACX_negctrl_site373]” as the sequence, how does the “gcPBM binding intensity (ln)” value read?
**A.** 8.63 ± 0.52

**Q.** With “TCTTTTTTTTCTTTTTTTTTATTTAAATATCAAGTA [CACACA_negctrl_site1354]” as the sequence, how does the “gcPBM binding intensity (ln)” value read?
**A.** 8.26 ± 0.55

**Q.** With “AGGAGGTCAGTTCACAGTACCCAGAAACTCTACGAG [XGTACX_site2006]” as the sequence, how does the “gcPBM binding intensity (ln)” value read?
**A.** 8.62 ± 0.56

**Q.** How did the “gcPBM binding intensity (ln)” value turn out when “TCATATTATAATGTGAGTACATATAATAAATAAGTT [XGTACX_site2470]” was run?
**A.** 8.82 ± 0.49

**Q.** With “ATGTTTGTCTATAGCTGTACCTATTTATAAAACGTA [XGTACX_site7157]” as the sequence, how does the “gcPBM binding intensity (ln)” value read?
**A.** 8.79 ± 0.43

**Q.** How did the “gcPBM binding intensity (ln)” value turn out when “GTAAAAATTTTAAATACATGCAAGCGATTAATATGA [TGCATGCA_site80]” was run?
**A.** 8.71 ± 0.39

**Q.** Which “gcPBM binding intensity (ln)” value does the source give for “TTAATATGATATATATATATATATATATATATATAT [CACACA_negctrl_site683]” here?
**A.** 9.585 ± 0.092

**Q.** “ATATTTCTGTCAAGCACACATAATATTAAAATATGT [CACACA_site4330]” was tested. Which “gcPBM binding intensity (ln)” value did it give?
**A.** 9.15 ± 0.24

**Q.** Which “gcPBM binding intensity (ln)” value does the source give for “ATTTAGAAAAATAAAACACACATATAGATGTAAATA [CACACA_site7853]” here?
**A.** 8.81 ± 0.52

**Q.** With “ACAGAAAAAAAACACACACACATAATATACATACAT [CACACA_site1932]” as the sequence, how does the “gcPBM binding intensity (ln)” value read?
**A.** 9.82 ± 0.19

**Q.** Which “gcPBM binding intensity (ln)” value does the source give for “TATACATATATAAATGCATGTTGATATTAATAGTTA [TGCATGCA_site639]” here?
**A.** 8.71 ± 0.33

**Q.** With “AGGAGACTTAAAAAAAGTACAAAAAAAAAAAAAAGC [XGTACX_site1576]” as the sequence, how does the “gcPBM binding intensity (ln)” value read?
**A.** 9.06 ± 0.67

**Q.** “TATTTTTTTTTCTTTTTATATATAATAATCTTCATT [GTGCAC_negctrl_site80]” was tested. Which “gcPBM binding intensity (ln)” value did it give?
**A.** 8.47 ± 0.61

**Q.** With “GTATATATGTATATATGTACATATATACATTTTGTT [XGTACX_site7320]” as the sequence, how does the “gcPBM binding intensity (ln)” value read?
**A.** 9.04 ± 0.2

**Q.** How did the “gcPBM binding intensity (ln)” value turn out when “CGTTAAAGGGAATGTATACACACGTTTCTCTATGTT [CACACA_site1198]” was run?
**A.** 9.16 ± 0.32

**Q.** Which “gcPBM binding intensity (ln)” value does the source give for “TTAAATAATATTAAATGTACATATTATTATGATATA [XGTACX_site6189]” here?
**A.** 8.44 ± 0.41

**Q.** How did the “gcPBM binding intensity (ln)” value turn out when “TTATAACAACTGGAATGATTAACAATAAATATTAAA [CACACA_negctrl_site1723]” was run?
**A.** 8.53 ± 0.44

**Q.** For “TATATATTTAACAATCGTACATATTTACAAATATAA [XGTACX_site2131]”, which “gcPBM binding intensity (ln)” value is on record?
**A.** 8.32 ± 0.4

**Q.** “CCTGTAAATAAATATAAATACATATTTCTAATATAT [GTGCAC_negctrl_site21]” was tested. Which “gcPBM binding intensity (ln)” value did it give?
**A.** 8.54 ± 0.41

**Q.** How did the “gcPBM binding intensity (ln)” value turn out when “AAACATAAGAGACACACACACATATATAAATAAATA [CACACA_site7674]” was run?
**A.** 9.79 ± 0.38

**Q.** “AGGAGGTCAGTTCACAGTACCCAGGAAATCTACGGA [XGTACX_site2552]” was tested. Which “gcPBM binding intensity (ln)” value did it give?
**A.** 8.71 ± 0.56

**Q.** Which “gcPBM binding intensity (ln)” value does the source give for “AAAAATAAAATAAAGAAGGAAAATAAAAAAATAAGG [CACACA_negctrl_site1811]” here?
**A.** 8.71 ± 0.63

**Q.** With “AATTTCATAAATATAACTGAGAATAAATAAACAAAG [GTGCAC_negctrl_site146]” as the sequence, how does the “gcPBM binding intensity (ln)” value read?
**A.** 8.57 ± 0.44

**Q.** For “ACATATATTTAAAAATGTACTTACATATATTTTTTA [XGTACX_site6050]”, which “gcPBM binding intensity (ln)” value is on record?
**A.** 8.37 ± 0.48

**Q.** For “TTTTATACATATTTTACACACTAAAATATACATATA [CACACA_site324]”, which “gcPBM binding intensity (ln)” value is on record?
**A.** 8.75 ± 0.45

**Q.** How did the “gcPBM binding intensity (ln)” value turn out when “GAAGTATTTATTTATGCATGCAAATATACAAAAAAA [TGCATGCA_site975]” was run?
**A.** 8.84 ± 0.3

**Q.** For “TTATGTTGTAAATGCACACATACATAAACTCAGTTT [CACACA_site5639]”, which “gcPBM binding intensity (ln)” value is on record?
**A.** 9.05 ± 0.38
